PubChem BioAssay AID2451 (National Center for Advancing Translational Sciences (NCATS), 2010)
Values joined by “and” are separate entries in the source; they are usually repeats but may differ in a detail not shown here. Identical values can stand only once. In all, about 290,000 compounds went through this assay and about 2,100 (0.72%) were called active. The inconclusive results got no clear call from the source; some entries with a clear call stand among them for comparison. Calls follow the shape of the dose curve; as a rule, active = well fitted inhibition curve with a large enough effect; inconclusive = small, poorly fitted or top-dose-only effect, or effect the other way; inactive = flat fitted curve, though single readings scatter. Potencies of inconclusive entries are doubtful fits and often do not repeat.

Each molecule was assayed against Fructose-bisphosphate aldolase (Giardia intestinalis (strain ATCC 50803 / WB clone C6)) (UniProt A8B2U2) (assay: qHTS Assay for Inhibitors of Fructose-1,6-bisphosphate Aldolase from Giardia Lamblia). Conditions: purified Giardia FBPA; activity, negative = inhibition: at 59.6 µM (top of the series) unless noted.
Method in brief: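 40 nM FBPA preincubated 10 min at RT with compound (up to 57.5 uM final), then substrate plus GAPDH/TPI/NAD/arsenate coupling and diaphorase/resazurin added. Fluorescence read after 20 min at RT, 525/598 nm.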
% is scaled to controls: 0 for no effect and ±100 for the full control effect; potency is read from the fitted curve at half-maximal effect; tags tell the direction and shape of the fitted curve.
Also: nearly all actives have a fitted effect of over 55% in size.

Chain of UniProt A8B2U2 (A8B2U2 whole entry, looked up): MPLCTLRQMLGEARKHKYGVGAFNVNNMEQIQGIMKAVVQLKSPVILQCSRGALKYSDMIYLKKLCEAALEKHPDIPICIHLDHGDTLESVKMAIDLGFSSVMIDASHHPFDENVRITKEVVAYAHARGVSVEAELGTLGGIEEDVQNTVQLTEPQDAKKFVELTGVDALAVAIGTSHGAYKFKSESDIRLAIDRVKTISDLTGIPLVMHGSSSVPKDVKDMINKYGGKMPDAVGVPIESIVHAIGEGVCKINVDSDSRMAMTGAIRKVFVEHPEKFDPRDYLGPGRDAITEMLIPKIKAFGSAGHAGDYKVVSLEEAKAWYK

Row | SMILES | Potency | activity, negative = inhibition
1 | Cc1nc2ccc3[nH]snc3c2n1 | inconclusive: 14.1 µM [inhibitor, partial curve] | –
2 | CC(C)NS(=O)(=O)c1ccc(NC(=S)NC(=O)c2cccc([N+](=O)[O-])c2)cc1 | inconclusive: 7.92 µM [inhibitor, single point] | –
3 | Cc1cc(/C=C2/NC(=O)NC2=O)c(C)n1-c1sc2c(c1C#N)CCCC2 | inactive | –
4 | COc1ccc(N(CC(=O)NC2CC3CCC2C3)S(=O)(=O)c2ccc(C)c([N+](=O)[O-])c2)cc1 (centres undefined) | inactive | –
5 | COc1ccc(N2C(=O)CS(=O)C(c3ccccc3)C2=O)cc1 (centres undefined) | inactive | –
6 | Cc1ccc(NC(=O)COc2ccc(/C(N)=N/O)cc2)cc1C | inactive | –
7 | Cc1cccn2cc(-c3cccc(NC(=O)c4cccs4)c3)nc12 | inactive | –
8 | CCCc1cc(=O)n2[nH]c(Cc3ccccc3)nc2n1 | inconclusive: 17.8 µM [inhibitor, partial curve] | –
9 | CC1=NN(C(N)=S)C(=O)C1N=Nc1ccccc1C(=O)O (centres undefined) | active: 14.1 µM | –
10 | NC(=O)c1c(NC(=O)CSc2nnc(-c3ccco3)n2N)sc2c1CCCC2 | inconclusive: 5 µM [inhibitor, full curve] | –
11 | Fc1ccc(-c2cn3cc(C(F)(F)F)cc(Cl)c3n2)cc1 | inactive | –
12 | O=C(Nc1nnc(S(=O)(=O)N2CCCCC2)s1)c1cccc(Br)c1 | inconclusive: 25.1 µM [inhibitor, partial curve] | –
13 | CCCOCC1CC(CCc2nc(=S)[nH][nH]2)C(=O)O1 (centres undefined) | inconclusive: 11.2 µM [inhibitor, partial curve] | –
14 | O=C(O)c1ccccc1CSc1nc2ccccc2s1 | – | inconclusive: 39.8% [activator]
15 | CN1CCN(c2ccc(N)c(N3CCN(C)CC3)c2)CC1 | inconclusive: 1.26 µM [inhibitor, full curve] | –
16 | Cc1noc(C)c1-c1ccc2ncnc(N3CCN(C)CC3)c2c1 | inactive | –
17 | O=C(O)c1ccc(Cl)c(S(=O)(=O)Nc2ccc(OCc3ccccc3)cc2)c1 | inactive | –
18 | COc1ccc(Nc2nc(N)c3ccccc3n2)c(OC)c1 | inconclusive: 35.5 µM [inhibitor, single point] | –
19 | C=CCN(CC=C)CCOc1ccc(C)cc1[N+](=O)[O-] | active: 19.9 µM | –
20 | CC1CCCCN1Cc1cccnc1 (centres undefined) | inconclusive: 19.9 µM [inhibitor, partial curve] | –
21 | O=C(Nc1ccc(N2CCOCC2)cc1)c1cc(F)c(F)cc1Cl | inactive | –
22 | Fc1ccccc1-c1n[nH]c(=S)n1C1CC1 | inconclusive: 3.16 µM [inhibitor, partial curve] | –
23 | S=C(NCCc1ccccc1)NCC(c1ccco1)N1CCCCC1 (centres undefined) | inactive | –
24 | COc1cc(C=C(c2nc3ccccc3s2)c2nc3ccccc3s2)cc(OC)c1O | inconclusive: 17.7 µM [inhibitor, partial curve] | –
25 | CCCCC1=CC2=CC(=O)C(C)(OC(=O)C3CCCC3)C(=O)C2=CO1 (centres undefined) | inconclusive: 19.9 µM [inhibitor, partial curve] | –

Row | SMILES | Potency | activity, negative = inhibition
26 | CCC(=O)Nc1cccc(NC(=S)NC(=O)c2ccccc2)c1 | inconclusive: 17.7 µM [inhibitor, single point] | –
27 | O=C(Nc1ccc2ccccc2c1)c1ccc2[nH]c(=O)c(=O)[nH]c2c1 | inactive | –
28 | Cc1ccc(N=N/C(=C\O)C(=O)c2ccncc2)cc1 | inactive | –
29 | C=CCc1c(C)nc(-c2ccccc2)nc1N/N=C(\C)c1ccccc1 | inconclusive: 15.8 µM [inhibitor, partial curve] | –
30 | CC1=NN(c2ccc(N)cc2)C(=O)C1 | inconclusive: 15.8 µM [inhibitor, partial curve] | –
31 | O=[N+]([O-])c1ccc(N2CCN(c3ccccc3O)CC2)c(Cl)c1 | inconclusive: 50 µM [inhibitor, single point] | –
32 | Cc1c(NC(=O)c2cc(C3CC3)on2)c(=O)n(-c2ccccc2)n1C | inactive | –
33 | Cc1cc(C(=O)CSc2nc(N)cc(N)n2)c(C)n1C1CC1 | inconclusive: 19.9 µM [inhibitor, single point] | –
34 | Brc1cccc(OCCn2ccnc2)c1 | inconclusive: 17.7 µM [inhibitor, partial curve] | –
35 | CCOC(=O)Cc1csc(NC(=O)CN2CCOCC2)n1 | active: 14.1 µM | –
36 | CO[C@H]1O[C@H](C)[C@@H](O)C[C@H]1NC(=O)OCc1ccccc1 | inconclusive: 25.1 µM [activator, partial curve, poor fit] | –
37 | CSc1ccc(CNc2ccc(C)cc2)cc1 | inactive | –
38 | CN1CCN(c2ncc3nc(-c4cc(F)cc(F)c4)c(=O)n(CCC#N)c3n2)CC1 | inconclusive: 15.8 µM [inhibitor, single point] | –
39 | CC(C)c1nnc(NC(=O)c2cccc(-n3cnnn3)c2)s1 | inconclusive: 17.7 µM [inhibitor, partial curve] | –
40 | CCOC(=O)c1cccc(Nc2nc(-c3cccnc3)nc3ccccc23)c1 | inactive | –
41 | O=C(c1cccs1)[C@@H]1[C@@H]2C(=O)N(Cc3ccc4c(c3)OCO4)C(=O)[C@@H]2C2c3ccccc3C=CN21 (some centres undefined) | inconclusive: 3.54 µM [inhibitor, full curve] | –
42 | COc1ccc2cc3cc(C(=O)NCCN4CCc5ccccc5C4)oc3nc2c1 | active: 17.7 µM | –
43 | NS(=O)(=O)c1cccc2c1c([N+](=O)[O-])cc1[nH]c(=O)c(=O)[nH]c12 | inconclusive: 19.9 µM [inhibitor, partial curve] and inconclusive: 22.3 µM [inhibitor, partial curve] | –
44 | O=c1cc(Nc2cccc(Br)c2)[nH]c(=O)[nH]1 | inactive | –
45 | CC(=O)Nc1ccc(N/C=C(\C=O)c2nc3ccccc3o2)cc1 | inactive | –
46 | NC(=Nc1ccc(N)cc1)C(N)=Nc1ccc(N)cc1 | inconclusive: 15.8 µM [inhibitor, single point] | –
47 | CC(C)NC(=O)C1CCN(Cc2cccc(Oc3ccccc3)c2)CC1 | inconclusive: 11.2 µM [inhibitor, partial curve] | –
48 | CC1(C)CC2C1CCC1(C)OC2(C)CCC1O (centres undefined) | inactive | –
49 | Cc1c(-n2cc(C(=O)c3cc(Cl)ccc3O)cc(C#N)c2=O)c(=O)n(-c2ccccc2)n1C | inactive | –
